Like-named read-outs stand apart in the source and are kept apart here.
Columns and labels:
[1] = cited from earlier work
[2] = target: albumin (Homo sapiens, UniProt P02768); conditions: cited from earlier work
[3] = cited from earlier work; remark: listed apart in the source
[4] = for Survival: oral gavage, n=5
[5] = 10-parameter urine dipstick analysis (glucosuria, hematuria, pH, specific gravity) after oral SP-420
[6] = daily oral dosing at steady state in human patients
[7] = typical regimen, 3 times per day

Sequence of albumin (P02768 25-609): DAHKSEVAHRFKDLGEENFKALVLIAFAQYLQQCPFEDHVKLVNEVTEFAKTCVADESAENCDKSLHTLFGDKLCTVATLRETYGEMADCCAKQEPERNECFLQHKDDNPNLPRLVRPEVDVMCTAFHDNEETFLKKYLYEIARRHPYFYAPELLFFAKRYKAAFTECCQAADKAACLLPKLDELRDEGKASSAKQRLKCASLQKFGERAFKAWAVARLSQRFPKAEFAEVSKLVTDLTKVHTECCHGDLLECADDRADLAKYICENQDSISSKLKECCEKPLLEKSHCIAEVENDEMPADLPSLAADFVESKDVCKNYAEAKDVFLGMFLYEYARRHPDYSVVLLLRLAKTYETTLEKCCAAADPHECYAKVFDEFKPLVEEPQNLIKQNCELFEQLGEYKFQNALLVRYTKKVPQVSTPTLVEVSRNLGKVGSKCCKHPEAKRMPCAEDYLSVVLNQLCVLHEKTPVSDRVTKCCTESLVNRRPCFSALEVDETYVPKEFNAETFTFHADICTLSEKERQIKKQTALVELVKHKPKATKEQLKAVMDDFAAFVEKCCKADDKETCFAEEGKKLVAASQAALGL

For `O=C(O)c1ccc(-n2nc(-c3ccccc3O)nc2-c2ccccc2O)cc1` [Deferasirox], the “Fraction of patients with a persistent increase in serum creatinine of 33% or greater” value ([1]; patients) is given as “Approximately one-third”, the Albumin binding [2] is given as “highly bound to albumin” and the Mean elimination half-life [3, 6] is given as “approximately 12 hours”. For the same compound, the “Time to peak serum concentration after the dose” value [3, 6] was “approximately 2 hours”.

For `Cc1c(O)c(=O)ccn1C` [Deferiprone], the Iron chelator efficiency ([1]; background) is given as “low iron chelator efficiency”, the “Elimination half-life (t1/2)” value ([3]; background) is given as 1.9 h and the Half-life [3, 7] is given as 2 h. For the same compound, the “Time to peak serum concentration” value [3, 7] was 1 h.

In the case of `C[C@]1(C(=O)O)CSC(c2ccc(O)cc2O)=N1` [Deferitrin, 4,5-dihydro-2-(2,4-dihydroxyphenyl)-4-methylthiazole-4(S)-carboxylic acid], the “Kidney safety finding in clinical study” value ([1]; phase 2 study) is listed as “kidney injury” and the Oral bioavailability ([3]; background) is listed as “good oral bioavailability”.

In the case of `COCCOCCOc1ccc(C2=N[C@@](C)(C(=O)O)CS2)c(O)c1` [SP-420, (S)-4,5-dihydro-2-[2-hydroxy-4-(3,6-dioxaheptyloxy)phenyl]-4-methyl-4-thiazolecarboxylic acid], the Survival ([4]; 200 mg/kg SID, max cumulative dose 2400 mg/kg) is reported as 4/5, the Survival ([4]; 250 mg/kg EOD, max cumulative dose 2500 mg/kg) is reported as 5/5 and the Survival ([4]; 400 mg/kg EOD, max cumulative dose 2400 mg/kg) is reported as 3/5. The “Rats euthanized post-drug (weight loss, deteriorating condition)” value ([4]; Example 1, 162.5 mg/kg SID) was “one rat in the 162.5 mg/kg SID group was euthanized 3 days post-drug”, the “Kidney safety finding in clinical study” value ([1]; phase 1-2 study, terminated early, when the dose was escalated) was “kidney toxicity” and the Glucosuria ([5]; Example 2, 325 mg/kg EOD, n=5) was “not observed”. The “Appearance of 24-hour urine sample (FIG. 4)” value ([5]; one rat, 200 mg/kg/day SID) was “the top half contained a layer of frank blood”.

For `COCCOCCOCCOc1cccc(C2=N[C@@](C)(C(=O)O)CS2)c1O` [SPD602, (S)-2-(2-hydroxy-3-(2-(2-(2-methoxyethoxy)ethoxy)ethoxy)phenyl)-4-methyl-4,5-dihydrothiazole-4-carboxylic acid], the Overt toxicity ([1]; clinical development) is listed as “neither drug displayed overt toxicity”.

In the case of `CC(=O)N(O)CCCCCNC(=O)CCC(=O)N(O)CCCCCNC(=O)CCC(=O)N(O)CCCCCN` [deferoxamine], the “Half-life (in words)” value ([3]; background) is given as “short half-life” and the Oral bioavailability ([3]; background) is given as “poor oral bioavailability”.
